Source: PubChem BioAssay (NCI)
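Compound exposure: 48 hours, 5 concentrations, 96-well plates. GI50 marks 50% less growth. At the TGI there is no net growth.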

Tested on: NCI-H322M lung
Experiment: growth of human tumour cells (NCI), 48 h

| SMILES | GI50 [µM] | TGI [µM] |
| --- | --- | --- |
| COc1ccc(/C=C/c2n[nH]c3ccc(N4CCOC4=O)cc23)cc1 | 2.72 | 10.9 |
| CN(CCCCN(C)CCc1ccc(Cl)c(Cl)c1)CCCCN1CCCC1 |  | 3.08 |
| COc1ccc(-c2nc(-c3nc4ccc(OC)cc4[nH]3)cc3c2[nH]c2ccccc23)cc1 | 3.85 | > 100 |
| NCCCN1CCN(CC(=O)O)CCN(CCCN)CCN(CC(=O)O)CC1 |  | > 100 |
| COc1ccc(/C=C2\CCC(C)(CN(C)C)C2=O)cc1 (stereo not drawn) |  | > 100 |
| O=C(NCCO)Nc1c(C(F)(F)F)cc(-c2ccccc2)[nH]c1=O |  | > 100 |
| COc1cccc(N2C(=O)CSC2c2cc(OC)c(OC)c(OC)c2)c1 (stereo not drawn) |  | > 100 |
| Oc1c(C2=N[C@H]3CCCC[C@@H]3N2)ccc2ccccc12 |  | > 100 |
| S=C(S)N1CCN(c2ccc(Cl)c(Cl)c2)CC1 |  | > 100 |
| COC(=O)C1(Cc2ccccc2)Cc2ccc3c(c2C1=O)CCC3 (stereo not drawn) |  | > 100 |
| O=C(NO)C12C3C4C1C1C2C3C41C(=O)NO (stereo not drawn) |  | > 100 |
| CC(=O)N=c1ccc2nc3c(cc(N)c4ccccc43)oc-2c1 | 2.52 | 8.15 |
| Cc1n[nH]c(=O)n1/N=C/c1c[nH]c2ccccc12 |  | > 100 |
| CC1=C(C(=O)NCc2ccccc2)C(c2ccccc2[N+](=O)[O-])C(C(=O)NCc2ccccc2)=C(C)N1 |  | 29.6 |
| CC(=O)Oc1cc2c(cc1OC(C)=O)[C@H]1CC[C@]3(C)[C@@H](OC(C)=O)CC[C@H]3[C@@H]1CC2 |  | 23.2 |
| CCN(CC)C(=O)COc1ccc(Br)cc1Br |  | > 100 |
| CC(=O)O[C@H]1C(=O)[C@@]2(C)C(C(OC(=O)c3ccccc3)[C@]3(O)CC(OC(=O)C(O)C(NC(=O)c4ccc(C)cc4)c4ccccc4)C(C)=C1C3(C)C)[C@]1(OC(C)=O)CO[C@@H]1C[C@@H]2O (stereo partly drawn) |  | 10.9 |
| CCC(C)C(NC(=O)C1CCCN1C(=O)C(NC(=O)C(C)N)C(C)C)C(N)=O (stereo not drawn) | > 100 | > 100 |
| NC1=NNC2(C(N)=N1)c1ccccc1-c1ccccc12 |  | > 10 |
| CNC(=O)CCCN(C)C(=O)CCCCC(=O)N(C)C |  | > 100 |
| COC(=O)C1=C(C(=O)OC)C23C=C(C)C1C2=C(C)C1(CC1)[C@@](C)(O)C3=O (stereo partly drawn) | 0.332 | 3.11 |
| O=C1C=C(NCCc2cc(Br)c(O)c(Br)c2)C(=O)c2ncccc21 |  | 5.54 |
| CC(=O)OCC1OC(n2c(N)c(C#N)c(-c3ccc(C)cc3)c(C#N)c2=S)C(OC(C)=O)C(OC(C)=O)C1OC(C)=O (stereo not drawn) |  | 29.5 |
| CCOC(=O)c1sc(=S)c2c(C(=O)OCC)c(C(=O)OCC)sc2c1C(=O)OCC | 16.6 | 41.6 |
| CCOC(=O)c1c(C(F)(F)F)n([O-])c2ccc(OC)cc2[n+]1=O | 10.4 | > 100 |

| SMILES | GI50 [µM] | TGI [µM] |
| --- | --- | --- |
| Nc1ncnc2c1ncn2C1OC(CO)=CC1O (stereo not drawn) |  | > 37.5 |
| COc1ccc(C2=NN(C(C)=O)C(c3cn(-c4ccccc4)nc3-c3ccc(Cl)cc3)C2)cc1 (stereo not drawn) | > 100 | > 100 |
| COc1ccc2c(c1)CCC1C2CC[C@]2(C)/C(=N/OC(=O)Cc3ccccc3)CCC12 (stereo partly drawn) | 26 | 51.3 |
| O=C(CCCl)NNC1=NCCN1 |  | > 100 |
| N/N=C1\CCCc2c1no[n+]2[O-] |  | > 100 |
| COc1ccc2c(c1)OC[C@@H]1c3cc4c(cc3O[C@H]21)OCO4 |  | > 100 |
| Nc1nc2nc[nH]c2c(=O)[nH]1 |  | > 100 |
| C=C1C(=O)O[C@H]2[C@H]1CC/C(COC(=O)NCc1c[nH]c3ccc(Cl)cc13)=C\CC[C@@]1(C)O[C@@H]21 | 2.58 | 8.22 |
| FC(F)(Sc1ccccc1)c1nc2ccccc2o1 |  | > 100 |
| O=C(c1cccnc1)N1N=C(c2ccc(Cl)cc2)CC1(O)c1cc(F)c(Cl)cc1Cl (stereo not drawn) |  | > 100 |
| Cc1cccc(-c2cc(=S)c3cc(N4CCCC4)ccc3[nH]2)c1 |  | > 100 |
| COC(=O)C(Cl)=C1CC1 |  | > 100 |
| Nc1ccc(/C=N/Nc2ccnc3c(N)cccc23)c2cccnc12 | 1.77 | 3.6 |
| Cc1ccc(S(=O)(=O)OC2C(C3COC(C)(C)O3)OC3OC(C)(C)OC32)cc1 (stereo not drawn) |  | > 100 |
| COc1ccc2c(c1)CC[C@@H]1[C@@H]2CC[C@]2(C)C(c3ccco3)=C(C=O)C[C@@H]12 | 18.6 | 49.1 |
| CCOC(=O)CCC(NC(=O)Cc1ccc(Oc2nc3ccccc3nc2-c2cccs2)cc1)C(=O)OCC (stereo not drawn) |  | > 100 |
| Cc1ccccc1CN1CC=c2ccccc2=N1 |  | > 100 |
| CN(C)CC1(C)CC/C(=C\c2ccccc2)C1=O (stereo not drawn) |  | > 100 |
| COc1ccccc1CNCCCN1C(=O)c2ccc3c4c(ccc(c24)C1=O)C(=O)N(CCCNCCCN)C3=O | 1.06 | 5.93 |
| N#CCCN(CCC#N)c1ccc(/C=C2\N=C(c3ccccc3)N(c3ccccn3)C2=O)cc1 |  | > 100 |
| O=C1CCC2(CC1)SCCCS2 |  | > 100 |
| CC1=C(C(=O)Nc2ccc(Cl)c(Cl)c2)C(c2ccco2)C(C(=O)Nc2ccc(Cl)c(Cl)c2)=C(C)N1 |  | 27 |
| OCC12C3C4C1C1C2C3C41CO (stereo not drawn) |  | > 100 |
| COc1cccc(/C=C2\CCCCCC2=O)c1 |  | > 100 |
| CC1CCC2C(C(=O)O[C@H]3C4CCO[C@@H](OC5OC(CO)C(O)C(O)C5O)C4[C@@]4(CO)O[C@@H]34)=CO[C@@H](OC3OC(CO)C(O)C(O)C3O)C12 (stereo partly drawn) |  | > 10 |
